# Reference: a collection of fitness landscapes (doi:10.1126/science.1257360)
# The list shows a part of the results.
# B1: PhoQ; a variant is named by its letters at X, in order, P23837 (parent)
# chain: MKKLLRLFFPLSLRVRFLLATAAVVLVLSLAYGMVALIGYSVSFDKTTFRLLRGESNLFYTLAKWENNKLHVELPENIDKQSPTMTLIYDENGQLLWAQRDVPWLMKMIQPDWLKSNGFHEIEADVNDTSLLLSGDHSIQQQLQEVREDDDDAEMTHSVAVNVYPATSRMPKLTIVVVDTIPVELKSSYMVWSWFIYVLSANLLLVIPLLWVAAWWSLRPIEALAKEVRELEEHNRELLNPATTRELTSLVRNLNRLLKSERERYDKYRTTLTDLTHSLKTPLXXLQXXLRSLRSEKMSVSDAEPVMLEQISRISQQIGYYLHRASMRGGTLLSRELHPVAPLLDNLTSALNKVYQRKGVNISLDISPEISFVGEQNDFVEVMGNVLDNACKYCLEFVEISARQTDEHLYIVVEDDGPGIPLSKREVIFDRGQRVDTLRPGQGVGLAVAREITEQYEGKIVAGESMLGGARMEVIFGRQHSAPKDE
# Variants of: B1
# Assay: enrichment ratio after two sorts for PhoP signalling (ratio (wild type AVST 3.29)); higher = more functional
# Details: with PhoP (E. coli)
row,Variant,enrichment ratio
1,WVPH,≤ 0.25
2,KYAR,≤ 0.25
3,GQFP,≤ 0.25
4,HYAA,≤ 0.25
5,TDHK,≤ 0.25
6,KNYI,≤ 0.25
7,FLYM,≤ 0.25
8,SEQQ,4.37
9,ISHH,≤ 0.25
10,QPMC,≤ 0.25
11,YSNV,≤ 0.25
12,QPQC,≤ 0.25
13,YFKN,≤ 0.25
14,NSAN,≤ 0.25
15,FHFR,≤ 0.25
16,GFSC,≤ 0.25
17,PQVD,≤ 0.25
18,EKVP,≤ 0.25
19,QDVP,≤ 0.25
20,PTVH,≤ 0.25
21,WGDV,≤ 0.25
22,WIYV,≤ 0.25
23,CFMQ,≤ 0.25
24,WFCV,≤ 0.25
25,EFAH,≤ 0.25

row,Variant,enrichment ratio
1,TKVW,≤ 0.25
2,SPKH,≤ 0.25
3,TTQV,16.2
4,NIYY,≤ 0.25
5,QAWK,≤ 0.25
6,YTEG,≤ 0.25
7,VIIS,≤ 0.25
8,SQYM,≤ 0.25
9,THHM,0.72
10,EMMF,≤ 0.25
11,RWHM,≤ 0.25
12,GKHT,≤ 0.25
13,HVRC,≤ 0.25
14,KTKL,1.81
15,TVID,≤ 0.25
16,EFMT,≤ 0.25
17,NMQC,≤ 0.25
18,IVWR,≤ 0.25
19,PYTA,≤ 0.25
20,VIGV,≤ 0.25
21,RNIM,≤ 0.25
22,HHND,≤ 0.25
23,CFYW,≤ 0.25
24,IKVD,≤ 0.25
25,INSY,≤ 0.25

row,Variant,enrichment ratio
1,WMYA,≤ 0.25
2,NKLA,≤ 0.25
3,LENL,≤ 0.25
4,GHHL,≤ 0.25
5,KEMH,≤ 0.25
6,MRWW,≤ 0.25
7,GTCK,≤ 0.25
8,IEGY,≤ 0.25
9,VTLW,≤ 0.25
10,RSMP,≤ 0.25
11,PQVM,≤ 0.25
12,MFQI,≤ 0.25
13,IHHV,≤ 0.25
14,PPWR,≤ 0.25
15,MFAD,≤ 0.25
16,QEML,≤ 0.25
17,KDSC,≤ 0.25
18,DGWT,≤ 0.25
19,NDGC,≤ 0.25
20,HVCK,≤ 0.25
21,IPAA,≤ 0.25
22,HDLK,≤ 0.25
23,YECT,3.66
24,YCLC,0.294
25,AMNR,≤ 0.25

row,Variant,enrichment ratio
1,SRYY,≤ 0.25
2,ELGF,≤ 0.25
3,RRTN,≤ 0.25
4,RYAG,≤ 0.25
5,SPEP,≤ 0.25
6,SKAQ,≤ 0.25
7,GHVW,≤ 0.25
8,PSKK,≤ 0.25
9,GRIL,≤ 0.25
10,ARYG,≤ 0.25
11,LQWY,≤ 0.25
12,PIPP,≤ 0.25
13,FIGF,≤ 0.25
14,KHVQ,≤ 0.25
15,GPAH,≤ 0.25
16,HNGI,≤ 0.25
17,DVLK,≤ 0.25
18,QNYL,≤ 0.25
19,SDAN,2.41
20,WCSS,≤ 0.25
21,SPPD,≤ 0.25
22,RVPV,≤ 0.25
23,AKTE,≤ 0.25
24,LDRR,≤ 0.25
25,NDVK,≤ 0.25

row,Variant,enrichment ratio
1,PEQG,≤ 0.25
2,TPYV,≤ 0.25
3,IYST,≤ 0.25
4,TPQN,≤ 0.25
5,QGRC,≤ 0.25
6,FTKT,≤ 0.25
7,HGQM,≤ 0.25
8,DIYP,≤ 0.25
9,GDFD,≤ 0.25
10,MLLH,≤ 0.25
11,AGKP,≤ 0.25
12,DSCH,≤ 0.25
13,PFEP,≤ 0.25
14,DVMQ,≤ 0.25
15,YMPR,≤ 0.25
16,MQWS,1.53
17,QLFL,≤ 0.25
18,NKPI,≤ 0.25
19,GGKM,≤ 0.25
20,RRTF,≤ 0.25
21,EYIQ,≤ 0.25
22,FLPL,≤ 0.25
23,WSWN,≤ 0.25
24,YVDL,≤ 0.25
25,LWYV,≤ 0.25

row,Variant,enrichment ratio
1,DFIR,≤ 0.25
2,FMDE,≤ 0.25
3,AHQG,≤ 0.25
4,GGFS,≤ 0.25
5,LMCR,≤ 0.25
6,IDGS,≤ 0.25
7,KNMA,≤ 0.25
8,MNTP,≤ 0.25
9,VIMK,≤ 0.25
10,SIAR,11.2
11,GQRD,≤ 0.25
12,RHCW,≤ 0.25
13,WRGR,≤ 0.25
14,ASYW,≤ 0.25
15,GCGR,≤ 0.25
16,FTPQ,≤ 0.25
17,AEYK,≤ 0.25
18,TKNL,4.01
19,RCQN,≤ 0.25
20,AQDC,≤ 0.25
21,EPCG,≤ 0.25
22,VNWH,≤ 0.25
23,LQGK,≤ 0.25
24,IQPR,≤ 0.25
25,NPFC,≤ 0.25

row,Variant,enrichment ratio
1,VMKK,≤ 0.25
2,FTQP,≤ 0.25
3,YYEV,≤ 0.25
4,ANCV,3.79
5,VMWC,≤ 0.25
6,AFMH,≤ 0.25
7,LAFC,≤ 0.25
8,SLLT,4.46
9,AGEI,≤ 0.25
10,DYEW,≤ 0.25
11,NCHM,≤ 0.25
12,MYPY,≤ 0.25
13,HFDP,≤ 0.25
14,WSLL,7.48
15,LWHN,≤ 0.25
16,HAPF,≤ 0.25
17,DLRF,≤ 0.25
18,VTVQ,≤ 0.25
19,GWSA,≤ 0.25
20,SRHT,≤ 0.25
21,PVYR,≤ 0.25
22,QAWQ,≤ 0.25
23,RAWH,≤ 0.25
24,TMHD,≤ 0.25
25,AQTC,9.55

row,Variant,enrichment ratio
1,YSAR,≤ 0.25
2,IKWV,≤ 0.25
3,TAFD,≤ 0.25
4,VDYS,≤ 0.25
5,NMHD,≤ 0.25
6,FPTY,≤ 0.25
7,NNSF,≤ 0.25
8,HSRF,≤ 0.25
9,IPSD,≤ 0.25
10,QIWE,≤ 0.25
11,KVEA,≤ 0.25
12,VNSV,6.18
13,SIGS,4.81
14,KTCA,≤ 0.25
15,QGPQ,≤ 0.25
16,PDPN,≤ 0.25
17,GFLD,≤ 0.25
18,MLPF,≤ 0.25
19,NQYM,≤ 0.25
20,PLYA,≤ 0.25
